Our source for the Kd values is article PMC9700832 (2022).

In this assay the target is tectiviral gp7 homolog from the phage found in B. cereus HuB13-1 (tectiviral phage found in B. cereus …). Briefly: SPR. A general note: In SPR one partner is held on a chip, and binding of the other changes the refractive index at the surface.

As usually defined, the Kd is the equilibrium constant for the complex coming apart.

B1: B. thuringiensis serovar israelensis LexA (natural protein)
chain: MEKLTKRQQDILDFIKLKVQEKGYPPSVREIGQAVGLASSSTVHGHLSRLEEKGYIRRDPTKPRAIEILGEDRMDTETQSVIQVPIVGKVTAGLPITAVESVEEHFPLPASIVAGADQVFMLRISGDSMIEAGIFDGDLVVVRQQQSAYNGEIVVALTEDNEATVKRFYKEKDHFRLQPENSSLEPIILKQVSVIGKVIGVYRDLH
B1: the dissociation constant Kd is 274 nM.
